The chains are these.
T1: UNK ZnF1-3 (human, UniProt Q9C0B0 31-174)
T1 sequence: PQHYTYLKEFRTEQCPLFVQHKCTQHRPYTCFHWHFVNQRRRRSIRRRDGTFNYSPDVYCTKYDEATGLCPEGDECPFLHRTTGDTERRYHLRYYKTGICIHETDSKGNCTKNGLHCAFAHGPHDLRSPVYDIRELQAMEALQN

B1: chr4:77932910:77932911:+_ENSG00000138758_ENST00000541121|hu_hu|FALSE|FALSE (ssRNA)
RNA: GGGAGUUCUACAGUCCGACGAUCUUUAAUCUUCAAUUCCUCUUGCAGGUAGGCCUCGAACUGGGCAUCAAUAUAUUCUACUAUCGGCUUAUAGCUGUCAUCUUUAUUUAUCUGGUCUCCAAAUCCCACGGUGUCAACAAUGGUCAACAGAGGAUUGAGCAUCA
B2: chrX:140365796:140365797:-_ENSMUSG00000031285_ENSMUST00000033642|mus_mus|mus_mus_mus_hu_False|28_38 (ssRNA)
RNA: GGGAGUUCUACAGUCCGACGAUCCUUCUCAUUACUCAGUGCCUGCAAGGUUCUGGUUCGGUAGAAGCUACAGUGGGCGCUGUGAGUGGGGCUAGGCAGUCCAUUCAUCCGUGACCCUCGCAUGUUCCUGGAUGUCUUAUCUCUCAACAGAGGAUUGAGCAUCA
B3: chr14:31998760:31998761:-_ENSMUSG00000021910_ENSMUST00000163846|mus_mus|motif|central (ssRNA)
RNA: GGGAGUUCUACAGUCCGACGAUCUGCAGGCAGAAUGGCCACAUGAAGGACACCCCAAAGCACAAGACAGGUACAGACACGGUGGAGCUGGGAAGGCUUUCCAGCUCUGGAGUCACAAAAGGAAAAACAGCUUUUUGUCGUCUCCAACAGAGGAUUGAGCAUCA
B4: chr10:27409400:27409401:-_ENSG00000136758_ENST00000375972|hu_mus|FALSE|FALSE (ssRNA)
RNA: GGGAGUUCUACAGUCCGACGAUCAGCUUGGUUCACAAGAUUCUCCAACUCUGCUCCAGAGAACCCAACAGUCCCUCGAGCUAUGAUUUCUGGAUCAACAGAUUUAUCAAACUUUAUCUUGUUGAGAUACCAUUUCAAAAUUUCCAACAGAGGAUUGAGCAUCA
B5: chr12:73047227:73047228:+_ENSMUSG00000034574_ENSMUST00000085299|mus_mus|FALSE|FALSE (ssRNA)
RNA: GGGAGUUCUACAGUCCGACGAUCUUCAAAUCUUUUGGCAAAUUCUAGUUCAUCUUCAUUUCGGAGCAUUUCAAAAAAGUCUAAAUGCCUGUCUAGUGUUGAAUUUUCAUGUUCCCUUAAUUUAUCUAUAACAGGUUGAAUUCCCAACAGAGGAUUGAGCAUCA
B6: chr7:133995287:133995288:-_ENSMUSG00000030689_ENSMUST00000106343|mus_mus|FALSE|FALSE (ssRNA)
RNA: GGGAGUUCUACAGUCCGACGAUCGCCUGCCUUUGUUCUCAGGAAUUCUUCUAUGAGAUUGAACUCUCCACUCUGGCCACUAAGACCCUGGAGGUCACAGUCUGGGACUACGACAUUGGCAAAUCCAAUGACUUCAUAGGUGAGCAACAGAGGAUUGAGCAUCA
B7: chr16:94690367:94690368:+_ENSMUSG00000040785_ENSMUST00000117648|mus_mus|motif|central (ssRNA)
RNA: GGGAGUUCUACAGUCCGACGAUCUCUGUAUUUGCCACUGCCUACAGGUCACUAAAAAUACCUAGUUUUUGAAUAGUUUCGGAUACAGUUAGCUUGUUUUCAGGCCACAUUACAAGAUUGCAUGCAUUACUUUACACAAAAGUCCAACAGAGGAUUGAGCAUCA
B8: chr6:51419726:51419727:-_ENSMUSG00000004980_ENSMUST00000114459|mus_mus|FALSE|FALSE (ssRNA)
RNA: GGGAGUUCUACAGUCCGACGAUCUCCAUCGCGGACUCAGUCGCUUCAGCCCGAUUUCCCGCAGCCGAGCGAGAUGAGAAAGACCUCCGCGGACGGACGCGCACGGGACUCGUCCUGGCGCUGUGGGGAGAGCAGGCGAUGGCCCAACAGAGGAUUGAGCAUCA
B9: chr4:57314706:57314707:+_ENSG00000128050_ENST00000264221|hu_hu|FALSE|FALSE (ssRNA)
RNA: GGGAGUUCUACAGUCCGACGAUCCAGUAUUUCAAAUAUAGCCUGUGUAGCAUGACUCAUGAUAUCCACUUCAGUCUGGCCUAUAAGAAGUCCAGCAAAGCAAAAUUUUGCAGCAAUCAGCUGUUCCUCAGACCACUGUGGGUCCAACAGAGGAUUGAGCAUCA
B10: chr11:87793471:87793472:-_ENSMUSG00000020483_ENSMUST00000020775|mus_mus|mus_mus_mus_hu_False|1_68 (ssRNA)
RNA: GGGAGUUCUACAGUCCGACGAUCUGGACUUGAAAAUAAAAGAAUAAGCUGGAUCCCCCACCCCCCCACAGUGUCAACCCUACACGAGAGUUUUGAAGGCGACUCAUGAAAAUCAGCAGCUCAAACGGCAAUGACCACCCACCCCAACAGAGGAUUGAGCAUCA
B11: chr17:63407507:63407508:-_ENSMUSG00000023965_ENSMUST00000024761|mus_mus|FALSE|FALSE (ssRNA)
RNA: GGGAGUUCUACAGUCCGACGAUCGCUGAAUCAAACAACGCAGGCUCUUUUGGAAGUCUCCCUUUCUUCAUGAGCUGCUGGCAUCCUUACAGUUCGUUAUUAGCCAAGGGAGAUCACAGGACUGGGCGCUGAAGGAUCUUAGAUCAACAGAGGAUUGAGCAUCA
B12: chr12:48362563:48362564:+_ENSG00000134291_ENST00000256686|hu_hu|hu_hu_hu_mus_False|8_58 (ssRNA)
RNA: GGGAGUUCUACAGUCCGACGAUCUCCGUCAAGCCCUUCGAUAGACCCUUGCGGGGGAAACUGUAAUCACUUUGUAUUUCUAAAAAAAAGAAACGCCAAAAACUUUCCAAAAAGCGGGGGUGGGGUGUCCCAGGCCUGGGAGGUCAACAGAGGAUUGAGCAUCA
B13: chr12:86369911:86369912:+_ENSMUSG00000021244_ENSMUST00000021670|mus_mus|FALSE|FALSE (ssRNA)
RNA: GGGAGUUCUACAGUCCGACGAUCAACAGUUGCUUUGGGGCCUUUCCACUGUGGUCCACUCUGUCGAGGACUUAGGGAUGUAUUGGGAGUUAUAUAAAAUUGAGAUGCUGGGCCCCGAGGGAUCGUUCCCCAUUUGCUUUUAGUCAACAGAGGAUUGAGCAUCA
B14: chrM:14062:14063:+_ENSG00000198786_ENST00000361567|hu_hu|FALSE|FALSE (ssRNA)
RNA: GGGAGUUCUACAGUCCGACGAUCGUGAUGAUGGAGGUGGAGAUUUGGUGCUGUGAAAUUGUUUUAGGUAAUAGCUUUUCUAGUCAGGUUAGGUCUAGGAGGAGUAGGGGCAGGUUUUGGCUCGUAAGAAGGCCUAGAUAGGGGCAACAGAGGAUUGAGCAUCA
B15: chr5:37680062:37680063:+_ENSMUSG00000029121_ENSMUST00000031004|mus_hu|mus_mus_mus_hu_False|8_88 (ssRNA)
RNA: GGGAGUUCUACAGUCCGACGAUCUUUGGGUGUAGCUGGUACCUCGUACACAGGCCCGUCAUACAUGCCCCUGGAAACCCCUUGCAAUCCAAAAACCUUAUUCCUGAUUUUGACGCGCUGGUACAGGUGCUCUGGGAACGCCUUCAACAGAGGAUUGAGCAUCA
B16: chr9:110467127:110467128:+_ENSMUSG00000044791_ENSMUST00000153838|mus_mus|motif|central (ssRNA)
RNA: GGGAGUUCUACAGUCCGACGAUCUUCUUUGCCAUAUCUUUGGAACUGGUAGUCAAAAGUUAAUUCUGAGCCUGAAGGAACGGGUUUGGUGGUAAAAAAUCCAACCCUCAGCUGUCCAUUCACAGUCCAUUUCUGGGUUUCACACAACAGAGGAUUGAGCAUCA
B17: 46157249_46157369_1373_CDS_ENSMUSG00000015176_ENSMUST00000165017|mouse|control|control (ssRNA)
RNA: GGGAGUUCUACAGUCCGACGAUCAGGUUUCUGGUUACUGCCUGCAGGUUGCUUAGGAGUUGUCACUGCCUUUGCUGCAGAUGGCUUCGGAGUGACAGCUGGCUUGGGACUCUUGGUUGUACUGACUGGCUUGGCAGGAGCUUCCAACAGAGGAUUGAGCAUCA
B18: 33338705_33344351_3722_CDS_ENSG00000083642_ENST00000450460|human|control|control (ssRNA)
RNA: GGGAGUUCUACAGUCCGACGAUCCUGUACCAACUUAGUCAAGUCAUCCAUACCUAAUUUCUCCUCCUGUUCUGUGACGGGCGUUUUUUUCCUGCCUCUAGGCUUCUCCAAUUCAGACCUUACAAGAUCAGAGUCGUCUCUCUUCAACAGAGGAUUGAGCAUCA
B19: 247055108_247057967_1981_CDS_ENSG00000153207_ENST00000391829|human|control|control (ssRNA)
RNA: GGGAGUUCUACAGUCCGACGAUCUGCAAAACAGCUCAAGACUAUAUUAAGAUUGCUAAGAAGCAAAUAGCAUUGCUGGAUAGACUGUAUAGUUUGUGGAUCCAUGAAAUGACACGAACCAUCAAAUAAUGGCACACAUAGUCUCAACAGAGGAUUGAGCAUCA
B20: 118830706_118831971_2346_3pUTR_ENSG00000182197_ENST00000378204|human|control|control (ssRNA)
RNA: GGGAGUUCUACAGUCCGACGAUCAGCAGUGGCAGGCCAGCGGUGUUUGGCUGGUAGGGGCUUGUCACAAUUCCAUAGAACUAUGAUCUGGGCACAGUACUGGGACUUGGCUGCAGCCACGAGAAGCUUCAACACUGGCUGGGACAACAGAGGAUUGAGCAUCA
B21: chr13:60863204:60863205:+_ENSMUSG00000021559_ENSMUST00000077453|mus_hu|motif|central (ssRNA)
RNA: GGGAGUUCUACAGUCCGACGAUCAGUCCAAACAGACCCUGCCCAAGCCAGAGGCUGCCCUCACCGGGAUACAACAGAGCGGAUGGAAUUGUAAGAGGUGCCGCUGUUGCAGCUCGAGGCAUAGGCCUCCUGGCCAUUGCCAUCCAACAGAGGAUUGAGCAUCA
B22: chr9:95013113:95013114:-_ENSG00000196305_ENST00000443024|hu_hu|hu_hu_hu_mus_False|8_88 (ssRNA)
RNA: GGGAGUUCUACAGUCCGACGAUCCUCAGUCAGAAAGGGCGUGUAAGGAGCCAUAAGUCUGCACAGAGAAAGCAGGACACUGAACAGUGUCUCCAGAGCCAUGACACAGUCUUCCACCCCACUCUCACCCUUUAAUCUCCUCCUCAACAGAGGAUUGAGCAUCA

The other results are listed elsewhere or left out.

This experiment addresses T1, UNK ZnF1-3. The experiment can be described thus: nsRBNS (natural sequence RNA bind-n-seq); RBNS binding buffer (assumed for nsRBNS): 25 mM Tris pH 7.5, 150 mM KCl, 3 mM MgCl2, 0.01% Triton X-100, 500 ug/ml BSA, 20 U/ml SUPERase-In, 4 C; UNK is unkempt and MSI1 is Musashi-1; names of the RNAs are library labels; protein concentration not given here; high values mean tight binding.
B1 registered a binding signal of 0.954 enrichment R. Next, B2: 0.657 enrichment R. Turning to B3, the binding signal was found to be 1.13 enrichment R. Next, B4: 1.23 enrichment R; B5: 0.652 enrichment R. As for B6, the binding signal was 1.06 enrichment R. The molecule B7 yielded a binding signal of 1 enrichment R. In the case of B8 it was 0.455 enrichment R; in that of B9, 0.911 enrichment R. In the case of B10 it was 2.36 enrichment R. In the case of B11 it was 1 enrichment R; in that of B12, 1.69 enrichment R; in that of B13, 0.914 enrichment R. With B14, the binding signal amounted to 2.28 enrichment R. In the case of B15 it was 0.732 enrichment R; in that of B16, 0.932 enrichment R. B17: the binding signal came to 0.547 enrichment R.

On to B18, for which the binding signal is 0.584 enrichment R. In the case of B19 it was 0.6 enrichment R.

In the case of B20, the binding signal stood at 1.45 enrichment R. Next, B21: 0.784 enrichment R; B22: 1.34 enrichment R.

Source of the values: publication PMC12136788.
